Results on 58 compounds are retold here after ChEMBL document CHEMBL1157539, “Thousands of chemical starting points for antimalarial lead identification” (Nature, 2010).

Over roughly 13,000 compounds, “IFI” has its median near 4; the highest 2% begin near 17. This is one part of the list.

The nature of this assay: GSK_TCMDC: Inhibition Frequency Index (IFI). The number of non-kinase HTS assays where a compound showed > 50 % inhibition, expressed as a percentage of the number of such assays in which the compound was tested (-0 is zero). It counts as functional.
The compound `CN(C)c1ccc(CN2CCC(NC(=O)c3ccc(-c4ccccc4Cl)s3)CC2)cc1` showed an IFI of 12.5%.
The value for `CC(C)(CN)c1nc(-c2ccc(Br)c(O)c2)c(-c2ccncc2)[nH]1` was 4.38%.
With `CC(C)CNC(=O)c1cncc(-c2ccc(CN3CCC(N4CCCC4)CC3)cc2)c1`, the IFI is -0%.
The value for `CC(C)N1CCC(Oc2ccc(CN3CCN(C(c4ccccc4)c4ccc(Cl)cc4)CC3)cc2)CC1` (stereo not drawn) was 13.9%.
With `CCc1ccc(C(=O)Nc2cccc(CN3CCCN(Cc4ccc(O)cc4)CC3)c2)cc1`, the IFI is 4.83%.
The value for `COc1ccc(C2CC(=O)C3=C(C2)NC(C)=C(C(=O)OC2CCCC2)C3c2cccc(O)c2)cc1` (stereo not drawn) was 5.48%.
With `CC1CN(CCCn2c3ccccc3c3ccc(C(=O)CCCN(C)C)cc32)CC(C)N1` (stereo not drawn) the figure was 3.62%.
As for `CCCC(CNCc1cccc(OC(F)(F)F)c1)CNc1cc(=O)c2ccccc2[nH]1` (stereo not drawn), the IFI is 2.9%.
The value for `CSC1=NC(=Nc2ccccc2C)C2(CCC(C(C)(C)C)CC2)N1c1ccccc1Cl` (stereo not drawn) was 2.96%; that for `CCOc1cc(NCCSCc2nc[nH]c2C)nc2ccccc12` was 1.52%; that for `CN1CCc2cc(I)c(O)cc2C1Cc1ccccc1Cl` (stereo not drawn) was 4.17%.
In the case of `Cc1cc(CNCCCCCCCNCc2cccc([N+](=O)[O-])c2)ccc1O`, the IFI is -0%.
Take `COc1ccc2nccc(N3CCC(NCCNCc4ccc5c(n4)NC(=O)CO5)C3)c2n1` (stereo not drawn): the IFI was found to be 6.43%.
With `CC(C)CNCc1cccc(-c2ccc(CN(C(=O)NCCc3ccccc3)C3CCN(Cc4ccccc4)CC3)cc2)c1` the figure was 10.9%; with `N#Cc1ccccc1Sc1ccccc1C(=O)Nc1ccc2ccccc2n1`, 2.25%; with `CN1CCN(c2ccnc3ccc(NC(=O)Nc4ccc5ccccc5c4)cc23)CC1`, 1.46%.
As for `O=C(NCCN1CCOCC1)c1csc(C2CCCN(C(=O)c3ccc(O)c(-c4cc(Cl)cc(Cl)c4)c3)C2)n1` (stereo not drawn), the IFI is 0.74%.
The value for `CCC(C)OC(=O)C1=C(C)NC2=C(C(=O)CC(c3ccc(OC)c(OC)c3)C2)C1c1ccc(O)cc1` (stereo not drawn) was 0.69%; that for `COc1ccc2nccc([C@@H](O)CN3CCC(NC[C@H](Cc4ccccc4)NC(=O)OC(C)(C)C)CC3)c2c1` was 2.19%.
With `COc1ccc(-c2cc(NCc3ccc(-n4ccnc4)cc3)nc(Nc3ccccc3)n2)cc1`, the IFI was -0%.
For the compound `CCc1nc(N)nc(N)c1CCCOc1ccccc1Cl`, the IFI came out at 5.3%.
`OCCNc1nc(Nc2ccc(F)cc2)nc2ccccc12` showed an IFI of 3.52%.
The value for `CC(C)N1CCN(c2ccc(OCCCCN3CCN(c4cccc(Cl)c4Cl)CC3)cc2Cl)CC1` was 14.1%; that for `CCCS(=O)(=O)N1CCC(CO)(Cc2ccccc2C(F)(F)F)CC1` was 0%; that for `Cc1ccnc(NC(c2ccc(Cl)c([N+](=O)[O-])c2)c2ccc3cccnc3c2O)c1` (stereo not drawn) was 6.43%.
In turn, `CN(CCO)Cc1ccc(-c2ccc(NS(=O)(=O)c3cccc4cccnc34)cc2)cc1` showed an IFI of 5.43%.
With `O=C(Nc1ccc2c(c1)CCC2)N[C@H]1CCN(CCCCCNC(=O)C2CC2c2ccc(Cl)c(Cl)c2)C1` (stereo partly drawn) the figure was 13.5%; with `O=C(Nc1ccc(OC2CCN(Cc3ccc(F)cc3)CC2)c(Cl)c1)c1ccsc1`, 4.84%; with `Fc1ccc2[nH]c(-c3ccc(-c4ccc(CNCCN5CCNCC5)cc4)s3)nc2c1`, 6%.
With `CC(C)(C)c1ccc(NC(=O)c2cccc(CN3CCCN(Cc4cccc(O)c4)CC3)c2)cc1` the figure was 13.3%; with `OC(CNc1ccnc(Nc2ccccc2)n1)c1ccc(C(F)(F)F)cc1` (stereo not drawn), 8.08%; with `O=C(Nc1ccccc1Cl)N(Cc1cc(Cl)cc(Cl)c1)CC(O)COc1ccc(Cl)c(F)c1` (stereo not drawn), 0.7%.
`O=C(Nc1c(F)cccc1F)c1cccc(-c2nn3ccccc3c2-c2ccnc(Nc3cccc(-c4cnco4)c3)n2)c1`: the IFI turned out to be 8.33%.
The value for `Cc1cc(NC(=O)NCCN2CCC(NS(=O)(=O)c3ccccc3Cl)C2)c2ccccc2n1` (stereo not drawn) was 0%; that for `Cc1cc(N2CCCC2)nc(Nc2ccc(NC(=O)c3ccc(Br)o3)cc2)n1` was 5.41%; that for `COc1ccccc1N1CCN(Cc2c(NC(C)=O)sc(C)c2C)CC1` was 0.83%.
Compound `CC(CN1CCN(C)CC1)C(=O)Nc1cccc(-c2ccc(-c3nc4cc(C(F)(F)F)ccc4[nH]3)cc2)c1` (stereo not drawn) gave an IFI of 4.55%.
The value for `CCCCCCNc1cc(C)nc2ccc(OC)cc12` was 1.48%; that for `COC(=O)c1cccc(C#CCCOCCCCCCNC[C@H](O)c2cc(Cl)c(N)c(Cl)c2)c1` was 6.06%.
The value for `CC(C)CCn1c(Sc2ccc(C#N)c([N+](=O)[O-])c2)nnc1-c1ccc(N(C)C)cc1` was 5.63%.
As for `OC1=C2C(=Nc3ccccc3SC2c2ccccc2)c2ccccc21` (stereo not drawn), the IFI is 5.04%.
With `CC1(C)N=C(N)N=C(N)N1c1ccc(Cl)cc1` the figure was 1.46%.
With `CC(CON1C(N)=NC(N)=NC1(C)C)Cc1ccc(Cl)cc1Cl` (stereo not drawn) the figure was 7.3%.
The value for `Cc1ccc(NC(=O)c2nc(N3CCN(c4ccncc4)CC3)ccc2Cl)cc1F` was 6.9%; that for `Cc1cc(N[C@@H](CC(C)C)C(=O)NCc2cccc(F)c2)nc(NCCc2ccccc2)n1` was 17.1%.
Compound `Cc1noc(C)c1-c1cccc(CNCc2ccc(-c3cccc(-c4nc5cc(C(F)(F)F)ccc5[nH]4)c3)cc2)c1` yielded an IFI of 6.93%.
Regarding `Cc1nc(C)c(CC(=O)Nc2ccc(-c3ccc(-c4nc5cc(C(F)(F)F)ccc5[nH]4)s3)cc2)s1`, the IFI amounted to 12.3%.
The value for `O=c1c2ccccc2[nH]c2nc3ccccc3c(Nc3ccccc3)c12` was -0%; that for `Cc1ccc(Nc2ccnc(Nc3ccc(C)c(F)c3)n2)cc1O` was 8.7%.
The value for `CCN(CC)CCN(Cc1ccc(-c2ccc(C(F)(F)F)s2)cc1)C(=O)Cn1c(CCc2cccc(F)c2F)nc(=O)c2ccccc21` was 2.9%; that for `Cn1c2c(c3ccccc31)CN(CCC1(c3ccc(Cl)c(Cl)c3)CN(C(=O)c3ccccc3)CCO1)CC2` (stereo not drawn) was 5.67%.
The value for `CCOC(=O)c1ccc(NC(=O)Nc2cccc(-c3ccc(-c4nc5cc(C(F)(F)F)ccc5[nH]4)cc3)c2)cc1` was 3%; that for `CCc1c(C)nc(-n2nc(C)cc2NC(=O)C(CC)c2ccccc2)[nH]c1=O` (stereo not drawn) was 11.8%; that for `CN(C)Cc1ccc(-c2ccc3ccnc(N)c3c2)cc1` was 4.9%.
In turn, `Cc1cccc2nc(C(=O)Nc3nc(CN4CCC(C)CC4)cs3)cn12` registered an IFI of 4.41%.
`CC(C)CC(=O)N(Cc1ccc(-c2ccc(CNC3Cc4ccccc4C3)cc2)cc1)C1CCNCC1` showed an IFI of 6.47%.
In the case of `Cc1ccc(NC(=O)c2cccc(C#N)c2)cc1-c1ccc(C(=O)Nc2ccncc2)cc1`, the IFI is 24.6%.
With `Cc1cc(C(F)(F)F)n2nc(C(=O)N(C)Cc3cncn3Cc3ccc(F)cc3)cc2n1` the figure was 11.7%.
